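A five-concentration, 48-hour dose response in 96-well plates underlies each endpoint, interpolated linearly between surrounding concentrations. GI50: concentration for 50% inhibition of growth. TGI marks complete inhibition of growth.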
These molecules were tested on NCI-H322M lung (assay: DTP human tumour cell line panel, 48 h).
`COCCNc1ccc2ncc(C#Cc3cncc(C(=O)Nc4ccc(CN5CCN(C)CC5)c(C(F)(F)F)c4)c3)n2n1` gave a GI50 of 190 nM and a TGI of 872 nM. Work on `C=C(C=O)[C@@H]1CC[C@]2(C)[C@H](CC=C3[C@H]4[C@@H](C)[C@H](C)CC[C@]4(C(=O)OC)CC[C@]32C)[C@@]1(C)CCC#N` yielded a GI50 of 2370 nM and a TGI of 6510 nM. `COc1ccc2c(c1)c(CC(=O)[Se]CCC#N)c(C)n2C(=O)c1ccc(Cl)cc1` gave a GI50 of 2360 nM and a TGI of 6840 nM. `C=C(C)[C@@H]1CC[C@]2(COS(C)(=O)=O)CC[C@]3(C)[C@H](CC[C@@H]4[C@@]5(C)CCCNC(C)(C)[C@@H]5CC[C@]43C)[C@@H]12` gave a GI50 of 1560 nM and a TGI of 3060 nM. For `Cc1ccc2c(n1)C(=O)C(Cl)=C(Nc1cccc(C(C)C)c1)C2=O`, the GI50 was 4570 nM and the TGI was 17300 nM. With `O=C1C(N2CCN(c3ccccc3)CC2)=C(Cl)C(=O)c2ncccc21` the GI50 was 15000 nM and the TGI was 28200 nM. For `CN1CCN(c2nc(-c3csc(-c4ccccc4)n3)cc3ccccc23)CC1`, the GI50 was 2670 nM and the TGI was 10200 nM. `COc1cc2c3c(cc4c5c(ccc4c3c1OC)OCO5)N(CCN(C)C)C2=O` was tested, and the GI50 was 175 nM and the TGI was 971 nM.
